Measured values taken from the supplement of paper PMC10441789.
The other results are listed elsewhere or left out. Antibody binding of pooled human sera (four to six donors per pool; dilution not stated) to peptides of the Trypanosoma cruzi antigen TSSA on microarrays. Quantile-normalised fluorescence in arbitrary units, mean of duplicate arrays; higher = more binding. No active / inactive call. The uninfected pools are read here as the healthy donors of the same country. The strongest signals lie near the top of the scale (about 60,000).

System: pooled sera of uninfected people, Colombia
Assay: antibody binding signal (normalised fluorescence) (arbitrary fluorescence units); higher = stronger serum antibody binding to peptide
Experimental: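 Microarray of 15-residue peptides over residues 30-55 of Trypanosoma cruzi TSSAII, each with 1 to 10 substitutions at naturally variable positions, probed with one serum pool per country.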

Sequence	antibody binding signal
KKTAAGEAPSPPGAS	742
GTEKKTAAGEAPSQS	1260
SGTENKTAAGGTPSP	557
ENKTATGGAPSPPGA	147
DKKPAAGEAPSPPGA	121
ISTPPSGKENKPATG	577
STPPSGTDKKPATGE	412
PSGKEKKAAAGGAPS	136
GTDNKPATGETPSPP	158
KENKTAAGGAPSPSG	112
KPAAGEAPSQSGASS	126
GTDKKPATGEAPSQP	265
KDNKPATGETPSQPG	332
ENKTATGGAPSQSGA	131
NKAAAGEAPSQSGAS	221
GKEKKPAAGETPSPP	116
TDKKPATGGAPSPPG	185
GKEKKPAAGGTPSPS	104
PPSGTDNKTATGGAP	557
SGTEKKTAAGEAPSP	1800

Sequence	antibody binding signal
KDKKAATGGAPSQSG	149
ENKAAAGGTPSPPGA	428
KENKAAAGGAPSPPG	117
STPPSGKENKAATGE	1250
GKEKKPATGGAPSPS	90.8
KKPAAGEAPSQPGAS	106
KDNKAATGETPSQSG	210
GTENKTATGEAPSQS	194
GTDNKPATGGAPSQP	205
TISTPPSGTDNKTAT	196
GTEKKAAAGETPSQS	923
PSGTENKTATGGTPS	382
KDKKAAAGGAPSQPG	99
SGKDKKPAAGETPSP	1210
SGTEKKTATGETPSQ	140
GKEKKAAAGETPSPS	78.5
GKEKKTAAGEAPSQS	246
SSTPPSGTDKKAATG	396
KENKTATGETPSPPG	163
SSTPPSGKEKKPAAG	303
